The source of these data is PubChem BioAssay AID306 (DTP/NCI, 2004).

The test system of the test is BDF1 mice, L1210 Methyl-GAG-resistant leukemia, survival T/C. In words: NCI In Vivo Anticancer Drug Screen. Data for tumor model L1210 Leukemia resistant to Methyl-GAG; NSC 32946 (subcutaneous) in B6D2F1 (BDF1) mice. Conditions: endpoint: mean survival time, schedule: Q01DX Z (ip), higher = longer survival. The procedure:
The antitumor activity of compounds was measured in mice bearing transplantable tumors. Survival or tumor size were measured and the results are expressed as the measurement made in the treated group (T) divided by the measurement made in the vehicle treated control group (C). The tumor model used in this assay is L1210 Leukemia resistant to Methyl-GAG; NSC 32946 (subcutaneous) in B6D2F1 (BDF1) mice

Structures are written as SMILES. Toxic doses and inconclusive results are not listed. A number of entries come with more than one value. The list is limited to them. An entry can have further records. Results that share an entry are repeated measurements (runs, samples, wells, individuals or studies).

With `NC(=O)N(CCCl)N=O`, the T/C was 94 % of control and 164 % of control (dose: 4.0 mg/kg/injection, vehicle: carboxymethylcellulose (CMC)); 116 % of control and 191 % of control (dose: 8.0 mg/kg/injection, vehicle: carboxymethylcellulose (CMC)).

As to `Nc1nc2n[nH]nc2c(=O)[nH]1`, the T/C (dose: 200.0 mg/kg/injection, vehicle: other) was 119 % of control and 182 % of control.

Consider `Nc1nc(N)c2nc(CNc3ccc(C(=O)NC(CCC(=O)O)C(=O)O)cc3)cnc2n1` (centres undefined), for which, under “dose: 8.0 micrograms/kg/injection, vehicle: alkali diluted with saline”, the T/C was 102 % of control and 158 % of control.
